Results: a compilation of properties of binary mixtures (doi:10.1007/s10953-021-01072-9)
The densities may have been worked out from excess volumes.

Assay: xn = mol fraction of the nth substance listed
Conditions: 101.3 kPa

CCCC[N+]1(C)CCCC1.N#C[C-](C#N)C#N + O
Conditions | mass density [kg/m3]
293.15 K, x2 = 0 | 1008.5
293.15 K, x2 = 0.0734 | 1008.4
293.15 K, x2 = 0.2046 | 1007.7
293.15 K, x2 = 0.3056 | 1007.2
293.15 K, x2 = 0.3806 | 1006.9
293.15 K, x2 = 0.5091 | 1006.3
293.15 K, x2 = 0.6071 | 1005.9
293.15 K, x2 = 0.6987 | 1005.7
293.15 K, x2 = 0.8009 | 1005.6
303.15 K, x2 = 0 | 1003.2
303.15 K, x2 = 0.0734 | 1002.7
303.15 K, x2 = 0.2046 | 1001.9
303.15 K, x2 = 0.3056 | 1001.3
303.15 K, x2 = 0.3806 | 1000.8
303.15 K, x2 = 0.6987 | 999.1
303.15 K, x2 = 0.8009 | 998.9
313.15 K, x2 = 0 | 997.4
313.15 K, x2 = 0.313 | 995.1
313.15 K, x2 = 0.397 | 994.5
313.15 K, x2 = 0.5171 | 993.6
313.15 K, x2 = 0.6069 | 993.1
313.15 K, x2 = 0.6976 | 992.5
313.15 K, x2 = 0.8005 | 992.3
323.15 K, x2 = 0 | 991.5
323.15 K, x2 = 0.2139 | 989.8
323.15 K, x2 = 0.313 | 989.1
323.15 K, x2 = 0.5171 | 987.3
323.15 K, x2 = 0.6069 | 986.7
323.15 K, x2 = 0.6976 | 986
323.15 K, x2 = 0.8005 | 985.3

CCCC[n+]1ccc(C)cc1.N#C[C-](C#N)C#N + O
mass density [kg/m3]
Conditions | x2 = 0 | x2 = 0.1362 | x2 = 0.22 | x2 = 0.3297 | x2 = 0.4198 | x2 = 0.5254 | x2 = 0.6313 | x2 = 0.7156 | x2 = 0.8096
293.15 K | 1038 | – | 1036.5 | 1035.3 | 1034.2 | 1032.7 | – | 1029 | 1026
303.15 K | – | 1030.9 | 1030 | 1028.8 | 1027.6 | 1026 | 1024 | 1022 | 1019.1
313.15 K | – | 1024.6 | 1023.7 | – | 1021.1 | 1019.4 | 1017.2 | 1015.2 | 1012
323.15 K | 1020.1 | 1018.5 | 1017.5 | 1016.1 | 1014.7 | 1012.9 | – | 1008.3 | –

CCCC[n+]1ccn(C)c1.N#C[C-](C#N)C#N + O
Conditions | mass density [kg/m3]
293.15 K, x2 = 0 | 1050.5
293.15 K, x2 = 0.2063 | 1047.7
293.15 K, x2 = 0.5025 | 1042.3
293.15 K, x2 = 0.5971 | 1040.2
293.15 K, x2 = 0.7035 | 1037.2
293.15 K, x2 = 0.8016 | 1033.6
303.15 K, x2 = 0.1497 | 1041.5
303.15 K, x2 = 0.1986 | 1040.7
303.15 K, x2 = 0.3091 | 1039.2
303.15 K, x2 = 0.5999 | 1033.9
303.15 K, x2 = 0.6982 | 1031.1
303.15 K, x2 = 0.8004 | 1027.3
313.15 K, x2 = 0 | 1039.6
313.15 K, x2 = 0.1412 | 1038
313.15 K, x2 = 0.2063 | 1037
313.15 K, x2 = 0.3051 | 1035.5
313.15 K, x2 = 0.3932 | 1033.9
313.15 K, x2 = 0.5025 | 1032
313.15 K, x2 = 0.7035 | 1026.7
323.15 K, x2 = 0.1412 | 1028.3
323.15 K, x2 = 0.2063 | 1027.2
323.15 K, x2 = 0.3051 | 1025.6
323.15 K, x2 = 0.3932 | 1023.6
323.15 K, x2 = 0.5014 | 1021.5
323.15 K, x2 = 0.6977 | 1016.4
323.15 K, x2 = 0.8 | 1012.4
